{"source": "paper PMC6919601", "about": "“Identification of Plasmodium dipeptidyl aminopeptidase allosteric inhibitors by high throughput screening” (PLoS ONE, 2019)", "note": "About 230 (0.21%) of roughly 110,000 compounds showed an effect of 50% or more. The list shows a part of the results.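 Also: 30 min substrate incubation versus DMSO and 10 µM JCP410 controls.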"}
{"biological_target": "DPAP1 (Plasmodium falciparum, UniProt Q8IIJ9)", "sequence (Q8IIJ9 whole entry, looked up)": "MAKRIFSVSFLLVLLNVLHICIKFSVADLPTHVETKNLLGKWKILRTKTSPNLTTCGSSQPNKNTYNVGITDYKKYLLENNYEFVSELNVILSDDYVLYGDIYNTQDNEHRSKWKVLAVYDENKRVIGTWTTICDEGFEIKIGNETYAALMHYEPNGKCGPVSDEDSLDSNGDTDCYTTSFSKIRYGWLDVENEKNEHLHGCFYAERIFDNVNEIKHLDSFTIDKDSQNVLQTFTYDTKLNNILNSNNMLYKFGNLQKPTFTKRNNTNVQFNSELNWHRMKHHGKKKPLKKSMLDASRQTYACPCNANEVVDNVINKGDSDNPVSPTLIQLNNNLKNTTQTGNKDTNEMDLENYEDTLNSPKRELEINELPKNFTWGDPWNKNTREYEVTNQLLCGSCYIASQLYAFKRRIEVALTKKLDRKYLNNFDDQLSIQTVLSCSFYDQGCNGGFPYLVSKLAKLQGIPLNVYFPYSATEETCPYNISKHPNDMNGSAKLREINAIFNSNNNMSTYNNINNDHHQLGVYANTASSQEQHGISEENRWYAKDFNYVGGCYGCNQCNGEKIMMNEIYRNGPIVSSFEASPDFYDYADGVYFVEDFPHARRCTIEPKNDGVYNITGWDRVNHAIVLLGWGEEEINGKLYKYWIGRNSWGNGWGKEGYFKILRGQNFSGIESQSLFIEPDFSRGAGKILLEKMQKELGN", "assay": "primary screen, percent inhibition; read by cleavage of a fluorogenic dipeptide substrate; higher = more effect of the substance", "design": "species or system P. falciparum D10 trophozoite lysates; single well", "units": {"% Inhibition @ 10 uM": "%"}}
{"smiles": "Cc1ccc(C(=O)O)cc1S(=O)(=O)Nc1ccccc1Cl", "% Inhibition @ 10 uM": 0.189}
{"smiles": "Nc1ccccc1S(=O)(=O)Nc1cccc2cccnc12", "% Inhibition @ 10 uM": -3.48}
{"smiles": "CC(C)(C)C(/C=C\\c1ccc(Cl)cc1Cl)n1nnnc1C1(N2CCOCC2)CCCCC1", "note": "(stereo not drawn)", "% Inhibition @ 10 uM": -2.66}
{"smiles": "CCn1c2ccccc2c2cc(CNCCc3ccc(Cl)cc3Cl)ccc21", "% Inhibition @ 10 uM": -5.16}
{"smiles": "Cc1ccc2onc(CC(=O)Nc3cc(-c4cccc(Cl)c4)no3)c2c1", "% Inhibition @ 10 uM": 1.23}
{"smiles": "CC1CC(C)CN(C(=O)C2c3ccccc3C(=O)N(C)C2c2cn(C)c3ccccc23)C1", "note": "(stereo not drawn)", "% Inhibition @ 10 uM": -0.668}
{"smiles": "CCN(Cc1ccccc1)S(=O)(=O)c1csc(C(N)=O)c1", "% Inhibition @ 10 uM": 3.28}
{"smiles": "COc1ccc(-c2csc(/C(C#N)=C\\C=C\\c3ccccc3)n2)cc1", "% Inhibition @ 10 uM": 2.13}
{"smiles": "COc1cc(C2CC(=O)N=C(N)N2)ccc1OC(F)F", "note": "(stereo not drawn)", "% Inhibition @ 10 uM": 2.01}
{"smiles": "COc1cc(CNCc2cccc(C(F)(F)F)c2)cc(OC)c1", "% Inhibition @ 10 uM": -4.7}
{"smiles": "Clc1ccc(N2CCN(Cc3cc(Br)cs3)CC2)cc1", "% Inhibition @ 10 uM": 0.847}
{"smiles": "Cn1cccc1CNCCSc1nnnn1C", "% Inhibition @ 10 uM": 0.00706}
{"smiles": "CCO/C(O)=C/C1=Nc2nonc2NC(=O)C1", "% Inhibition @ 10 uM": 2.33}
{"smiles": "CC(C)(C)N1CN2C(=O)N3CN(C(C)(C)C)CN4C(=O)N(C1)C2C34", "note": "(stereo not drawn)", "% Inhibition @ 10 uM": 1.42}
{"smiles": "CC(C)CC(C(=O)N1CCN(C)CC1)N1Cc2ccccc2C1=O", "note": "(stereo not drawn)", "% Inhibition @ 10 uM": 8.57}
{"smiles": "O=C(c1ccccc1)n1nc(-c2cccnc2)nc1NCc1ccccc1", "% Inhibition @ 10 uM": 3.81}
{"smiles": "CN(CC(=O)NC1CCCc2ccccc21)c1nnc(N2CCCC2=O)s1", "note": "(stereo not drawn)", "% Inhibition @ 10 uM": -7.54}
{"smiles": "Cc1ccsc1C(=O)N[C@@H](CC1CCCCC1)C(=O)NCC#N", "% Inhibition @ 10 uM": 2.67}
{"smiles": "Cc1cccc(-n2nnc(C(=O)NCc3ccc4c(c3)OCO4)c2N)c1", "% Inhibition @ 10 uM": 4.47}
{"smiles": "CCCOc1ccc(C2C(C#N)=C(N)Oc3[nH]nc(C(C)(C)C)c32)cc1OC", "note": "(stereo not drawn)", "% Inhibition @ 10 uM": -2.07}
{"smiles": "CC1=C(C(=O)NC2CCCC2)C2(CCCCCC2)OC1=O", "% Inhibition @ 10 uM": -1.89}
{"smiles": "CCOC(=O)C1=CN(C(C)C)C=C(C(=O)OCC)C1c1ccccc1OC", "% Inhibition @ 10 uM": 1.86}
{"smiles": "CC(NC(=O)/C=C/c1ccco1)c1ccccc1", "note": "(stereo not drawn)", "% Inhibition @ 10 uM": 5.77}
{"smiles": "O=c1sc2ccccc2c(N2CCOCC2)c1[N+](=O)[O-]", "% Inhibition @ 10 uM": 5.01}
{"smiles": "CC(=O)N1CCN(C2=NC(=O)/C(=C/c3ccc(-c4cc(Cl)ccc4Cl)o3)S2)CC1", "% Inhibition @ 10 uM": 3.85}
{"smiles": "CCC(C)NC(=O)c1sc2nc(-c3ccccc3)cn2c1C", "note": "(stereo not drawn)", "% Inhibition @ 10 uM": -0.138}
{"smiles": "CNCCOC(c1ccccc1)c1ccccc1", "% Inhibition @ 10 uM": 0.989}
{"smiles": "COc1ccc(S(=O)(=O)N(C)CC(=O)N2CCN(c3cccc(Cl)c3)CC2)cc1", "% Inhibition @ 10 uM": -2.6}
{"smiles": "O=C(O)c1ccc(CS(=O)(=O)c2c(Cl)cccc2Cl)o1", "% Inhibition @ 10 uM": -3.78}
{"smiles": "COc1cc(C=O)ccc1Oc1nc(N2CCCCC2)nc(N2CCCCC2)n1", "% Inhibition @ 10 uM": 4.86}
{"smiles": "Cc1ccc(-c2csc(N)n2)cc1", "% Inhibition @ 10 uM": 20.7}
{"smiles": "COc1ccc(Cc2nc3ccccc3n2CC(C)C)cc1", "% Inhibition @ 10 uM": 1.12}
{"smiles": "CCc1nonc1NC(=O)c1ccc(C)cc1", "% Inhibition @ 10 uM": 0.00706}
{"smiles": "CCCCCCCOc1ccc(C2(C)NC(=O)NC2=O)cc1", "note": "(stereo not drawn)", "% Inhibition @ 10 uM": 3.96}
{"smiles": "O=C(NCCc1c[nH]c2ccccc12)c1cnc(N2CCCC2)nc1", "% Inhibition @ 10 uM": 0.44}
{"smiles": "NC(=O)c1cc(S(=O)(=O)NCCC2=CCCCC2)cs1", "% Inhibition @ 10 uM": 2.75}
{"smiles": "N#CCNC(=O)[C@H](CC1CCCCC1)NC(=O)c1cccc(O)c1", "% Inhibition @ 10 uM": -5.21}
{"smiles": "CCN1CCN(c2oc(/C=C/c3ccc(F)cc3)nc2C#N)CC1", "% Inhibition @ 10 uM": -0.808}
{"smiles": "O=C(C1CC1)N1CCN(c2ncccn2)CC1", "% Inhibition @ 10 uM": 2.32}
{"smiles": "COc1ccccc1C1c2[nH]c3ccccc3c2CCN1C(C)=O", "note": "(stereo not drawn)", "% Inhibition @ 10 uM": -2.21}
{"smiles": "CN(C)CCN(C(=O)c1ccc(Cl)s1)c1nc2ccc(F)cc2s1", "% Inhibition @ 10 uM": -6.46}
{"smiles": "O=C(Nc1ccc(Cc2ccncc2)cc1)C1CCC(N2C(=O)C3C4C=CC(C5CC45)C3C2=O)CC1", "note": "(stereo not drawn)", "% Inhibition @ 10 uM": -4.02}
{"smiles": "COc1ccccc1/C=C1\\SC(N2CC(C)OC(C)C2)=NC1=O", "note": "(stereo not drawn)", "% Inhibition @ 10 uM": 9.19}
{"smiles": "CCOc1cc(/C=C2\\SC(=O)N(CC)C2=O)ccc1OCC(=O)O", "% Inhibition @ 10 uM": 2.44}
{"smiles": "COc1cc2c(cc1OC)C(c1ccccc1Br)CC(=O)N2", "note": "(stereo not drawn)", "% Inhibition @ 10 uM": -10.8}
{"smiles": "COc1cccc(C2C3=C(O)CCCC3=NC(C)=C2C(=O)Nc2ccccc2OC)c1", "note": "(stereo not drawn)", "% Inhibition @ 10 uM": -0.941}
{"smiles": "COc1cc(C(c2c(O)n[nH]c2C)c2c(O)n[nH]c2C)cc(Br)c1O", "% Inhibition @ 10 uM": -7.1}
{"smiles": "CCCS(=O)(=O)N1CCCC(C(=O)NCCN(C)Cc2ccccc2)C1", "note": "(stereo not drawn)", "% Inhibition @ 10 uM": 4.81}
{"smiles": "CC1CCC2(CC1)SCC(=O)N2c1cccc(C(F)(F)F)c1", "note": "(stereo not drawn)", "% Inhibition @ 10 uM": -3.45}
{"smiles": "COc1ccc(C(=O)CSc2nnnn2Cc2ccccc2)cc1OC", "% Inhibition @ 10 uM": 1.65}
{"smiles": "Cc1ccccc1C(=O)Nc1cccc(NC(=O)COc2ccccc2Cl)c1", "% Inhibition @ 10 uM": 2.69}
